Data on 66 cell lines can be found in the supplement of paper PMC4967469.

Lines with a small IC50 respond at low doses; a limit (>, <) means that the fit lies beyond the doses tested. For AUC the same curve is integrated over the 256-fold range of doses and scaled to a fraction; the more sensitive the line, the further below 1. A top dose marked as inferred is not printed in the source and was worked back from the curve model.

Compound in the experiment: CCc1nc(-c2cccc(C)c2)c(-c2ccnc(NC(=O)c3ccccc3)c2)s1 [TAK-715]
The experiment can be described thus: Viability of human cancer cell lines after 72 h of drug (GDSC screen). The following applies: top dose inferred. The protocol:
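Human cancer cell lines in 384-well plates, medium with 10% serum, drug for 72 h over a 256-fold dose range (nine 2-fold or five 4-fold steps up to the top dose). Adherent lines were fixed and stained with the nucleic acid dye Syto60, suspension lines read with resazurin; signal relative to control wells, capped at 0 and 100%. One two-parameter sigmoid per drug and line, fitted in a mixed model over all curves with the slope shared within a line.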

What is called IC50 is the concentration that gives 50% inhibition. Take “CAL-62 (thyroid, adherent, top dose 20 µM)”: the AUC stood at 0.952 and the IC50 was greater than 20 µM.
As to “CAL-72 (osteosarcoma, adherent, top dose 20 µM)”, the AUC is 0.982 and the IC50 was greater than 20 µM.
Turning to “CAL-78 (chondrosarcoma, adherent, top dose 20 µM)”, the AUC stood at 0.986 and the IC50 is greater than 20 µM.
For “CAL-85-1 (breast, adherent, top dose 20 µM)” the same measures were 0.912 and greater than 20 µM.
For “CAL-120 (breast, adherent, top dose 20 µM)”, in that order: 0.949 and greater than 20 µM.
On to “CAL-148 (breast, suspension, top dose 20 µM)”, for which the AUC turned out to be 0.942 and the IC50 was greater than 20 µM.
For “CAMA-1 (breast, adherent, top dose 20 µM)”, the AUC amounted to 0.917 and the IC50 is greater than 20 µM.
For “CAPAN-1 (pancreas, adherent, top dose 20 µM)”, in that order: 0.969 and greater than 20 µM.
“CAS-1 (glioma, adherent, top dose 20 µM)”: the AUC was found to be 0.981 and the half-maximal inhibitory concentration (IC50) is greater than 20 µM.
For “CCF-STTG1 (glioma, adherent, top dose 20 µM)”, in that order: 0.988 and greater than 20 µM.
As to “CCK-81 (large intestine, adherent, top dose 20 µM)”, the AUC stood at 0.786 and the 50% inhibitory concentration (IC50) is 8.07 µM.
For “CCRF-CEM (lymphoblastic leukaemia, suspension, top dose 20 µM)” the same measures were 0.934 and greater than 20 µM.
Take “CESS (acute myeloid leukaemia, suspension, top dose 20 µM)”: the AUC was determined as 0.914 and the IC50 was greater than 20 µM.
Regarding “CFPAC-1 (pancreas, adherent, top dose 20 µM)”, the AUC amounted to 0.975 and the IC50 is greater than 20 µM.
For “CGTH-W-1 (thyroid, adherent, top dose 20 µM)”, in that order: 0.98 and greater than 20 µM.
For “CHL-1 (melanoma, adherent, top dose 20 µM)”, in that order: 0.952 and greater than 20 µM.
For “CHP-134 (neuroblastoma, suspension, top dose 20 µM)” the same measures were 0.974 and greater than 20 µM.
Regarding “CHP-212 (neuroblastoma, adherent, top dose 20 µM)”, the AUC was determined as 0.924 and the half-inhibitory concentration (IC50) was greater than 20 µM.
With “CHSA0011 (chondrosarcoma, adherent, top dose 20 µM)”, the AUC was found to be 0.977 and the IC50 is greater than 20 µM.
For “CHSA0108 (chondrosarcoma, adherent, top dose 20 µM)” the same measures were 0.984 and greater than 20 µM.
Regarding “CHSA8926 (chondrosarcoma, adherent, top dose 20 µM)”, the AUC amounted to 0.98 and the half-maximal inhibitory concentration (IC50) is greater than 20 µM.
As for “CL-11 (large intestine, adherent, top dose 20 µM)”, the AUC was determined as 0.96 and the 50% inhibitory concentration (IC50) is greater than 20 µM.
In the case of “CMK (acute myeloid leukaemia, suspension, top dose 20 µM)”, the AUC was found to be 0.881 and the half-maximal inhibitory concentration (IC50) worked out at 15.4 µM.
On to “COLO-205 (large intestine, suspension, top dose 20 µM)”, for which the AUC is 0.975 and the concentration for half-maximal inhibition (IC50) is greater than 20 µM.
As for “COLO-320-HSR (large intestine, suspension, top dose 20 µM)”, the AUC is 0.92 and the half-maximal inhibitory concentration (IC50) was greater than 20 µM.
As for “COLO-668 (small cell lung carcinoma, adherent, top dose 20 µM)”, the AUC was 0.886 and the IC50 is greater than 20 µM.
For “COLO-678 (large intestine, semi-adherent, top dose 20 µM)”, the AUC turned out to be 0.984 and the IC50 was greater than 20 µM.
For “COLO-679 (melanoma, adherent, top dose 20 µM)” the same measures were 0.967 and greater than 20 µM.
On to “COLO-680N (oesophagus, adherent, top dose 20 µM)”, for which the AUC was found to be 0.986 and the IC50 is greater than 20 µM.
Take “COLO-684 (endometrium, suspension, top dose 20 µM)”: the AUC was determined as 0.911 and the IC50 was greater than 20 µM.
For “COLO-783 (melanoma, adherent, top dose 20 µM)”, in that order: 0.964 and greater than 20 µM.
For “COLO-792 (melanoma, adherent, top dose 20 µM)” the same measures were 0.963 and greater than 20 µM.
Take “COLO-800 (melanoma, adherent, top dose 20 µM)”: the AUC came out at 0.927 and the IC50 is greater than 20 µM.
For the cell line “COLO-824 (breast, adherent, top dose 20 µM)”, the AUC amounted to 0.944 and the IC50 was greater than 20 µM.
Take “COLO-829 (melanoma, adherent, top dose 20 µM)”: the AUC is 0.978 and the concentration for half-maximal inhibition (IC50) is greater than 20 µM.
Turning to “COR-L23 (large cell lung carcinoma, adherent, top dose 20 µM)”, the AUC is 0.932 and the 50% inhibitory concentration (IC50) was greater than 20 µM.
For “COR-L88 (small cell lung carcinoma, adherent, top dose 20 µM)”, in that order: 0.944 and greater than 20 µM.
For “COR-L95 (small cell lung carcinoma, adherent, top dose 20 µM)”, in that order: 0.985 and greater than 20 µM.
For “COR-L105 (lung adenocarcinoma, adherent, top dose 20 µM)”, in that order: 0.891 and greater than 20 µM.
Turning to “COR-L279 (small cell lung carcinoma, suspension, top dose 20 µM)”, the AUC was found to be 0.943 and the IC50 was greater than 20 µM.
On to “COR-L303 (small cell lung carcinoma, suspension, top dose 20 µM)”, for which the AUC was 0.938 and the IC50 is greater than 20 µM.
Consider “COR-L311 (small cell lung carcinoma, suspension, top dose 20 µM)”, for which the AUC was determined as 0.932 and the IC50 is greater than 20 µM.
For “COR-L321 (lung, suspension, top dose 20 µM)”, in that order: 0.884 and greater than 20 µM.
As for “CP50-MEL-B (melanoma, adherent, top dose 20 µM)”, the AUC was 0.977 and the half-inhibitory concentration (IC50) was greater than 20 µM.
With “CP66-MEL (melanoma, adherent, top dose 20 µM)”, the AUC is 0.974 and the IC50 was greater than 20 µM.
For “CPC-N (small cell lung carcinoma, suspension, top dose 20 µM)” the same measures were 0.974 and greater than 20 µM.
As for CS1 (bone, adherent, top dose 20 µM), the AUC was 0.946 and the IC50 is greater than 20 µM.
For “CTB-1 (B-cell lymphoma, suspension, top dose 20 µM)”, in that order: 0.83 and 19.4 µM.
For “CTV-1 (acute myeloid leukaemia, suspension, top dose 20 µM)”, in that order: 0.65 and 2.97 µM.
For “CW-2 (large intestine, adherent, top dose 20 µM)”, in that order: 0.821 and 12.8 µM.
Turning to “Ca9-22 (head and neck, adherent, top dose 20 µM)”, the AUC is 0.97 and the 50% inhibitory concentration (IC50) is greater than 20 µM.
For “Ca-Ski (cervix, adherent, top dose 20 µM)” the same measures were 0.823 and 13.7 µM.
As for “CaR-1 (large intestine, adherent, top dose 20 µM)”, the AUC worked out at 0.94 and the IC50 is greater than 20 µM.
As for “Calu-3 (lung adenocarcinoma, adherent, top dose 20 µM)”, the AUC was determined as 0.979 and the 50% inhibitory concentration (IC50) is greater than 20 µM.
For “Calu-6 (lung adenocarcinoma, adherent, top dose 20 µM)” the same measures were 0.968 and greater than 20 µM.
Turning to “Caov-3 (ovary, adherent, top dose 20 µM)”, the AUC turned out to be 0.918 and the IC50 is greater than 20 µM.
For “Caov-4 (ovary, adherent, top dose 20 µM)”, in that order: 0.963 and greater than 20 µM.
For “Capan-2 (pancreas, adherent, top dose 20 µM)”, the AUC amounted to 0.985 and the IC50 was greater than 20 µM.
Take “ChaGo-K-1 (non-small cell lung carcinoma, adherent, top dose 20 µM)”: the AUC worked out at 0.942 and the IC50 was greater than 20 µM.
Consider “D-247MG (glioma, adherent, top dose 20 µM)”, for which the AUC is 0.98 and the half-maximal inhibitory concentration (IC50) is greater than 20 µM.
Take “D-263MG (glioma, adherent, top dose 20 µM)”: the AUC is 0.973 and the IC50 was greater than 20 µM.
For “D-283MED (medulloblastoma, adherent, top dose 20 µM)”, in that order: 0.974 and greater than 20 µM.
Turning to “D-336MG (glioma, adherent, top dose 20 µM)”, the AUC turned out to be 0.928 and the concentration for half-maximal inhibition (IC50) was greater than 20 µM.
For “D-392MG (glioma, adherent, top dose 20 µM)”, in that order: 0.98 and greater than 20 µM.
For “D-423MG (glioma, adherent, top dose 20 µM)”, in that order: 0.964 and greater than 20 µM.
Take “D-502MG (glioma, adherent, top dose 20 µM)”: the AUC stood at 0.976 and the half-maximal inhibitory concentration (IC50) was greater than 20 µM.
